Measurements: the supplement of paper PMC4967469
By IC50 is meant the dose at which the fit gives 50% viability; a limit (>, <) means that the fit lies beyond the doses tested. The AUC spans the tested range (256-fold, ending at the top dose) of the same fit; values near 1 show little effect. For some of these results: Where the top dose is marked as inferred, it was derived from the fitted curves, not read from the paper. For some of these results: Where an entry number is given, a second screen of the drug exists; the two often differ.

Experiments:
Assay in all cases: Viability of human cancer cell lines after 72 h of drug (GDSC screen)
SNX-2112 = compound: CC1(C)CC(=O)c2c(C(F)(F)F)nn(-c3ccc(C(N)=O)c(N[C@H]4CC[C@H](O)CC4)c3)c2C1 [SNX-2112]; details: top dose 2.56 µM
Protocol: (§1)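 Human cancer cell lines in 384-well plates, medium with 10% serum, drug for 72 h over a 256-fold dose range (nine 2-fold or five 4-fold steps up to the top dose). Adherent lines were fixed and stained with the nucleic acid dye Syto60, suspension lines read with resazurin; signal relative to control wells, capped at 0 and 100%. One two-parameter sigmoid per drug and line, fitted in a mixed model over all curves with the slope shared within a line.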

Vinblastine = compound: CC[C@]1(O)C[C@@H]2CN(CCc3c([nH]c4ccccc34)[C@@](C(=O)OC)(c3cc4c(cc3OC)N(C)[C@H]3[C@@](O)(C(=O)OC)[C@H](OC(C)=O)[C@]5(CC)C=CCN6CC[C@]43[C@@H]65)C2)C1 [Vinblastine]; details: top dose 0.1 µM; top dose inferred
Protocol: as §1

Afatinib = compound: CN(C)C/C=C/C(=O)Nc1cc2c(Nc3ccc(F)c(Cl)c3)ncnc2cc1O[C@H]1CCOC1 [Afatinib]
Protocol: as §1

PF-562271 = compound: CN(c1ncccc1CNc1nc(Nc2ccc3c(c2)CC(=O)N3)ncc1C(F)(F)F)S(C)(=O)=O [PF-562271]; details: top dose 2.56 µM; top dose inferred
Protocol: as §1

XMD13-2 = compound: O=C(NC1CC1)c1cccc(-c2ccc3c(NC(=O)C4CC4)n[nH]c3c2)c1 [XMD13-2]; details: top dose 10.24 µM; top dose inferred
Protocol: as §1

[1] = top dose 0.5 µM, screen: GDSC drug entry 1032
[2] = top dose 10 µM, screen: GDSC drug entry 1377, top dose inferred

Row | Cell Line | AUC (SNX-2112) | IC50 (SNX-2112) [nM] | AUC (Vinblastine) | IC50 (Vinblastine) [nM] | AUC (Afatinib; [1]) | IC50 (Afatinib; [1]) [nM] | AUC (Afatinib; [2]) | IC50 (Afatinib; [2]) [nM] | AUC (PF-562271) | IC50 (PF-562271) [nM] | AUC (XMD13-2) | IC50 (XMD13-2) [nM]
1 | HOP-62 (lung adenocarcinoma, adherent) | 0.347 | 60.3 | 0.595 | 11.4 | 0.986 | > 500 | 0.984 | > 10000 | 0.879 | > 2560 | 0.927 | > 10200
2 | HOP-92 (large cell lung carcinoma, adherent) | 0.601 | 318 | 0.646 | 17 | 0.977 | > 500 | 0.947 | > 10000 | 0.835 | 2070 | 0.974 | > 10200
3 | HOS (osteosarcoma, adherent) | 0.992 | > 2560 | 0.511 | 6.68 | 0.99 | > 500 | 0.942 | > 10000 | 0.926 | > 2560 | 0.992 | > 10200
4 | HSC-2 (head and neck, adherent) | 0.66 | 428 | 0.682 | 19.3 | 0.719 | 123 | 0.623 | 1330 | 0.83 | 1440 | 0.967 | > 10200
5 | HSC-39 (stomach, suspension) | 0.989 | > 2560 | 0.519 | 6.99 | 0.983 | > 500 | 0.972 | > 10000 | 0.99 | > 2560 | 0.867 | 7190
6 | HT55 (large intestine, adherent) | 0.931 | > 2560 | 0.945 | > 100 | 0.952 | > 500 | – | – | 0.981 | > 2560 | 0.971 | > 10200
7 | HT (B-cell lymphoma, suspension) | 0.503 | 163 | 0.699 | 21.5 | 0.989 | > 500 | 0.854 | 6910 | 0.957 | > 2560 | 0.933 | > 10200
8 | HT-3 (cervix, adherent) | 0.803 | 1300 | 0.741 | 30.9 | 0.894 | > 500 | 0.846 | 7470 | 0.876 | > 2560 | 0.966 | > 10200
9 | HT-29 (large intestine, adherent) | 0.335 | 55.6 | 0.615 | 12.9 | 0.966 | > 500 | 0.986 | > 10000 | 0.901 | > 2560 | 0.882 | > 10200
10 | HT-115 (large intestine, adherent) | 0.981 | > 2560 | 0.93 | > 100 | 0.897 | > 500 | 0.916 | > 10000 | 0.957 | > 2560 | 0.983 | > 10200
11 | HT-1080 (fibrosarcoma, adherent) | 0.903 | > 2560 | 0.444 | 4.48 | 0.989 | > 500 | 0.988 | > 10000 | 0.937 | > 2560 | 0.983 | > 10200
12 | HT-1376 (bladder, adherent) | 0.977 | > 2560 | 0.79 | 53.6 | 0.904 | > 500 | 0.882 | > 10000 | 0.945 | > 2560 | 0.985 | > 10200
13 | HUTU-80 (digestive system, adherent) | 0.216 | 28.6 | 0.603 | 11.3 | 0.97 | > 500 | 0.991 | > 10000 | 0.81 | 1070 | 0.822 | 4670
14 | Hep 3B2_1-7 (liver, adherent) | 0.486 | 146 | 0.596 | 11.5 | 0.985 | > 500 | 0.961 | > 10000 | 0.878 | > 2560 | 0.977 | > 10200
15 | Hs633T (fibrosarcoma, adherent) | 0.338 | 62.4 | 0.597 | 11 | 0.962 | > 500 | 0.99 | > 10000 | 0.886 | 1930 | 0.933 | > 10200
16 | Hs683 (glioma, adherent) | 0.643 | 400 | 0.629 | 14.2 | 0.981 | > 500 | 0.984 | > 10000 | 0.937 | > 2560 | 0.916 | > 10200
17 | Hs746T (stomach, adherent) | 0.731 | 929 | 0.751 | 43.5 | 0.974 | > 500 | 0.969 | > 10000 | 0.981 | > 2560 | 0.72 | 3380
18 | Hs766T (pancreas, adherent) | 0.973 | > 2560 | 0.838 | > 100 | 0.976 | > 500 | 0.965 | > 10000 | 0.971 | > 2560 | 0.981 | > 10200
